Measurements as given in article PMC12136788.
Where a chain is given by its changes, count along the chain named. The list shows a part of the results.

B1: chr10:120833061:120833062:-_ENSG00000107581_ENST00000369144|perfect_dup|FALSE|FALSE (ssRNA)
RNA: GGGAGUUCUACAGUCCGACGAUCUUGGGACUCUUCUUUAGCAGCUUCUGUUUUUUCCUCUGCUAAUUUCAAAUAUGCCCUAACAACAUCUUCUAAAGAUUUAAUGUUUACCUGUUGGCAUAUGUUCUUAUAUUGAUAUAACCCCAACAGAGGAUUGAGCAUCA
B2: chr2:31472812:31472813:+_ENSMUSG00000026843_ENSMUST00000055244|mus_mus|FALSE|FALSE (ssRNA)
RNA: GGGAGUUCUACAGUCCGACGAUCCGAGCACGUUUCAAACGGAAUGUUCCUCAGGUCAAUCCAAAAUGCAGGAAAAAAUAGCUUCAACUCCGUGUUUCCUUUAAAAAUACAUGUUAUCUGUACAGAUACACUACAGUAAACAUUCAACAGAGGAUUGAGCAUCA
B3: chr9:66219764:66219765:+_ENSMUSG00000038664_ENSMUST00000042824|mus_hu|motif|central (ssRNA)
RNA: GGGAGUUCUACAGUCCGACGAUCUUCAAAGUCUGGCAACUGUGGUCCUUUGAGGCAUAAAACUUGUUGGGGCAAAGGUACGGCUUCCUUAUUGCUAACCAGUUUAGAAUACAGAACAGCAACUCCCUCUCUUGUAGCAAUAGACAACAGAGGAUUGAGCAUCA
B4: chr16:94913438:94913439:+_ENSMUSG00000022897_ENSMUST00000122284|mus_hu|FALSE|FALSE (ssRNA)
RNA: GGGAGUUCUACAGUCCGACGAUCAGGGAUGUCAUGGAGUGGUGACUGUGGCCAACCUCCAUAGAAUCUUGGGUAGAGGAGCUAUUCGUUGGAGAAUUGUAGACCCUUGGCCUGGUCCGGUUACCCAAGGCUUGUUGUCCAUGGCAACAGAGGAUUGAGCAUCA
B5: chr3:179287964:179287965:+_ENSG00000136518_ENST00000429709|hu_hu|hu_hu_hu_mus_True|88_108 (ssRNA)
RNA: GGGAGUUCUACAGUCCGACGAUCCUUUAGAGGUGAAAUGGCCUCCAUAUUCUCCCUGGGCACGCGGAGGGCAUUGGUGUCUAUGUAGUAGGUGGGCCCGCCCUGCUUGCCUUUGUCACCAUCAAUCUCCAUCAUUGUACUUCCCAACAGAGGAUUGAGCAUCA
B6: chr7:135839730:135839731:+_ENSMUSG00000042105_ENSMUST00000151237|mus_hu|FALSE|FALSE (ssRNA)
RNA: GGGAGUUCUACAGUCCGACGAUCAUGGUACUUUAUUUUAAUAAUCACAAGAUUUAACACGUAAAAAAAAAAGAUAGCACUAAUAAAUAACAAAAGUGGAAUGCUUAUCAAAGUAACGACAUAAUGUUCAGUUGAGAAUCAGUCCAACAGAGGAUUGAGCAUCA
B7: chr5:138658563:138658564:+_ENSG00000015479_ENST00000502499|hu_hu|motif|central (ssRNA)
RNA: GGGAGUUCUACAGUCCGACGAUCAUCUUUUUUCACAGCUUUAUCUGAUGGUUCCUUUUUCCCAUCAGAAGCCACAUCACCGGAAUUAGCAAGAUCGGUCUCGUCUCCCACUGAACUGCCACUUUCUAGCAGUGCUGCUGCUUCCAACAGAGGAUUGAGCAUCA
B8: chr7:65705475:65705476:+_ENSG00000169902_ENST00000304842|hu_hu|hu_hu_hu_mus_True|38_48 (ssRNA)
RNA: GGGAGUUCUACAGUCCGACGAUCUCUAUUCGGUGAUGGCACUCCAUGGCAUGCUGGCCCAGGUAAAACACGGUCACAGAACUAAUCACCAGACAUGCCAAUAGUAAGUUCUGCUUCAGCUUCCCAACCAUCUUGAUGUGGUUACAACAGAGGAUUGAGCAUCA
B9: chr5:37680062:37680063:+_ENSMUSG00000029121_ENSMUST00000031004|mus_mus|motif|central (ssRNA)
RNA: GGGAGUUCUACAGUCCGACGAUCUUUGGGUGUAGCUGGCACCUCGUACACAGGCCCAUCGUACAUGCCCCUGGAAACACGGUGCAACCCGAAAACCUUGCUUCUGAUCCUGACACGCUGGUAGAGAUGCUCUGGGAAUGGCUUCAACAGAGGAUUGAGCAUCA
B10: chr22:19452774:19452775:-_ENSG00000070010_ENST00000399523|hu_hu|hu_hu_hu_mus_False|18_28 (ssRNA)
RNA: GGGAGUUCUACAGUCCGACGAUCCUUCUCAUUGUAGUUGAUAGCAAUCACAUCUCCAGUCGUCAGACAGGCGAAGUUUCUCAAUGCAUUUUCUAAUACCGCUUUAGGGUUGGUGAUGUCCAGGAAGUCUGGGCUCUGAGGCUGCAACAGAGGAUUGAGCAUCA
B11: chr4:95690885:95690886:+_ENSMUSG00000028572_ENSMUST00000156910|mus_mus|mus_mus_mus_hu_False|18_68 (ssRNA)
RNA: GGGAGUUCUACAGUCCGACGAUCUUUAGAAAAUGUUAAAUACCAUGCUAAAAUAUUUUCAAAGGCUAGUCUUAUUUUACCAGAAGUCACAGGCAAGCAGACACUACAAGAAUAUAUAAAUACAAACCUCAACAAUAUAACUGUCAACAGAGGAUUGAGCAUCA
B12: chr4:6882955:6882956:+_ENSG00000170871_ENST00000425103|hu_mus|FALSE|FALSE (ssRNA)
RNA: GGGAGUUCUACAGUCCGACGAUCUGGCGACACAGCCGCCAGAGGGAGGCCUGCAGCUGCGAUGCAGAAGCGGGACGCACUAGGACAAGCACAUGCACACCCAUUCCUCAUGGACAGCACAGUCUAGUCUACUUCAGAGAGCAACAACAGAGGAUUGAGCAUCA
B13: 99250274_99250394_344_CDS_ENSMUSG00000019761_ENSMUST00000103131|mouse|control|control (ssRNA)
RNA: GGGAGUUCUACAGUCCGACGAUCUCCGAAUCCACCACCGCCAAAGCCUCCUCCAUAGCUACCGCCACCAAAGCUGCCUCCACCGAAGCUGCCACCUCCACCGAAGCUGCCACCCCCAAAACUGCUACCUCCAUAGCCUCCCCCCAACAGAGGAUUGAGCAUCA
B14: chrX:100667754:100667755:+_ENSG00000126945_ENST00000316594|hu_hu|motif|central (ssRNA)
RNA: GGGAGUUCUACAGUCCGACGAUCUCCGUAUCUAUGAUCAGACAUUCCUGAAAAACAGUAAUUGAGGUCUCUUCCAAAUCGGUCAGACCCAAAGCCAUAUCCAUCAUUAUAGCCACCAUAGUCAUCAUAGCCUCCAUACCCUCCCAACAGAGGAUUGAGCAUCA
B15: chr1:100342015:100342016:+_ENSG00000162688_ENST00000361915|hu_mus|FALSE|FALSE (ssRNA)
RNA: GGGAGUUCUACAGUCCGACGAUCGGCUUCCUCUGCGGAUAAGGCCAUUUCUCCAAAGGGGAAAGUAAAAUACCUGGUAACUAAAGGAUACUUCCUGGUGACAGGUCCUAGUUUAGGGCCAUGGCCUGCCAGUCGUUCAUAAAACAACAGAGGAUUGAGCAUCA
B16: chr16:94664741:94664742:+_ENSMUSG00000040785_ENSMUST00000117648|mus_hu|mus_mus_mus_hu_False|98_108 (ssRNA)
RNA: GGGAGUUCUACAGUCCGACGAUCUGGCAUGGAUCUUUGCAUUGGAUAUUCAGGAGAAAGGCUGGCCAAGGGUGUAUAUAUGCUGGUGUACUGGGGCAAACCUGGUAACACGUUUAUGUAUGCUGGCGGUGUCUGGGUGAUAUCCAACAGAGGAUUGAGCAUCA
B17: chr2:202488911:202488912:-_ENSG00000155755_ENST00000286196|hu_mus|hu_hu_hu_mus_False|38_68 (ssRNA)
RNA: GGGAGUUCUACAGUCCGACGAUCAUUGAAACAUUUUUCAUAAUCUCCAGUAGCAUUUCAGCAUUAUUAAUCAAAAACUCAAUUGUAAAUACAUGUAUAUACAUCUUAUACACUUAAAAACACGAGUGGGGAGCGCAGGCGCCACAACAGAGGAUUGAGCAUCA
B18: chr11:29608675:29608676:+_ENSMUSG00000020458_ENSMUST00000102843|mus_mus|motif|central (ssRNA)
RNA: GGGAGUUCUACAGUCCGACGAUCCUCUGUAUCAGAAGGAAGUUUUUCCUCUGCUUCUUUCGUAAGUACUUUGGGUUUAACGGUGUUGCCCAUUUCUAUUUGAGAUUCCAAAGCAGAAACAUUUGGAAGCAAUAAGGGCACCUUCAACAGAGGAUUGAGCAUCA
B19: 53135465_53138077_820_CDS_ENSG00000012660_ENST00000304434|human|control|control (ssRNA)
RNA: GGGAGUUCUACAGUCCGACGAUCGAAUGUGCACGGCCAGAUGACCCCGCAGCUGGUCUGGAUGAUUGUCAGCACAAACUGAAGCAGCUGCCCCUGAGUGAUGUACUUCUUCCACCAGAGGUAUGGACGCAUGGAAGGGACUGACAACAGAGGAUUGAGCAUCA
B20: chr8:11667275:11667276:+_ENSG00000079459_ENST00000525900|hu_hu|FALSE|FALSE (ssRNA)
RNA: GGGAGUUCUACAGUCCGACGAUCAUCCUUCUCCUUGCUCUCCAUGAACCGCCAGUCUGGUUGGUAAAGGAAAGAGUGAAAGUUGUGUAACAGCGGGACCUUCUUUUCCACACUGAUGGUCAUGUCAUCUUCCAGUGUGUCCAGCAACAGAGGAUUGAGCAUCA
B21: chr2:84460416:84460417:-_ENSMUSG00000034101_ENSMUST00000111697|mus_hu|motif|central (ssRNA)
RNA: GGGAGUUCUACAGUCCGACGAUCGCCACCUGGAUAACCAUCUUCAUAGUGGCGACUAUAACCAUCAGGAGGGUAGUGGAAGUUCCGGGGAAGGGUAGCAGUGCCAGCUUGCCCCACAUAGGGACCAGGUCCCCCAUUGCCAUUCAACAGAGGAUUGAGCAUCA
B22: chr3:179287964:179287965:+_ENSG00000136518_ENST00000429709|hu_hu|hu_hu_hu_mus_True|88_88 (ssRNA)
RNA: B5 RNA with U27G, A30U, A36G

What follows are binders tested against T1, UNK ZnF1-3 (human, UniProt Q9C0B0 31-174) (assay: nsRBNS (natural sequence RNA bind-n-seq); RBNS binding buffer (assumed for nsRBNS): 25 mM Tris pH 7.5, 150 mM KCl, 3 mM MgCl2, 0.01% Triton X-100, 500 ug/ml BSA, 20 U/ml SUPERase-In, 4 C; UNK is unkempt and MSI1 is Musashi-1; names of the RNAs are library labels; protein concentration not given here; high values mean tight binding).
T1 sequence: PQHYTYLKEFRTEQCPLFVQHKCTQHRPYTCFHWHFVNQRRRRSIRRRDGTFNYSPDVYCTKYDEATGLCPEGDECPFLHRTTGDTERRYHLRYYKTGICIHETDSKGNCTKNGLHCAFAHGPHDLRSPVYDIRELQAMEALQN
B1 was tested, and the binding signal was 0.835 enrichment R.
For B2, the binding signal was 1.22 enrichment R.
With B3 the binding signal was 0.979 enrichment R.
B4 gave a binding signal of 0.588 enrichment R.
For B5, the binding signal was 0.786 enrichment R.
B6 was tested, and the binding signal was 1.24 enrichment R.
B7 was tested, and the binding signal was 0.511 enrichment R.
In the case of B8, the binding signal is reported as 0.544 enrichment R.
For B9, the binding signal was 0.92 enrichment R.
Binder B10 has a binding signal of 0.772 enrichment R.
B11 gave a binding signal of 1.37 enrichment R.
In the case of B12, the binding signal is reported as 1.34 enrichment R.
For B13, the binding signal was 1.69 enrichment R.
B14 was tested, and the binding signal was 0.999 enrichment R.
Binder B15 has a binding signal of 0.727 enrichment R.
Binder B16 has a binding signal of 0.977 enrichment R.
With B17 the binding signal was 1.29 enrichment R.
For B18, the binding signal was 0.539 enrichment R.
B19 gave a binding signal of 1.42 enrichment R.
Work on B20 yielded a binding signal of 0.692 enrichment R.
In the case of B21, the binding signal is reported as 0.987 enrichment R.
In the case of B22, the binding signal is reported as 0.666 enrichment R.
